Source: PubChem BioAssay AID624417 (National Center for Advancing Translational Sciences (NCATS), 2012)
Among all 410,000 compounds or so, about 6,400 (1.6%) were called active. The inconclusive results got no clear call from the source; some entries with a clear call stand among them for comparison. Calls come from the whole dose curve; as a rule, active = well fitted inhibition curve with a large enough effect; inconclusive = small, poorly fitted or top-dose-only effect; inactive = no such curve, though single readings can be large or run the other way. Where the call is inconclusive, the potency comes from a doubtful curve fit.

Biological target: Glucagon-like peptide 1 receptor (Homo sapiens) (UniProt P43220)
Chain of UniProt P43220 (P43220 whole entry, looked up): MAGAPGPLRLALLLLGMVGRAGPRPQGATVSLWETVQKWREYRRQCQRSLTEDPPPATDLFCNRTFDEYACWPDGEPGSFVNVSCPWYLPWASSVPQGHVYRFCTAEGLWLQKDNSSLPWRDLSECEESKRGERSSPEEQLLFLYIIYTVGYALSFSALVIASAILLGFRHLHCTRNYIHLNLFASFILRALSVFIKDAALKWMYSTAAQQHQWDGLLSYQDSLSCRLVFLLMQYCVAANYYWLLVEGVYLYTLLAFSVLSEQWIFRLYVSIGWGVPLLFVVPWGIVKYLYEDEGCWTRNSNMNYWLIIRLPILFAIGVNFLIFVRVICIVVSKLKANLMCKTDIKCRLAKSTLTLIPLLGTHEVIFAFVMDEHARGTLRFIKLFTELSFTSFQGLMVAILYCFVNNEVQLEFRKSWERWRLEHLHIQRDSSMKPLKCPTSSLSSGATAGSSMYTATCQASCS
Assay: qHTS of GLP-1 Receptor Inverse Agonists (Inhibition Mode); note: nearly all actives have a fitted effect of over 55% in size
Settings: HEK293 GLP-1R CRE-luciferase, luminescence, 24 h, GLP-1R form is constitutively active; activity change, negative = inhibition: at 38.3 µM (top of the series) unless noted
Procedure, shortened: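 GLP-1R inverse agonism mode: basal reporter luminescence in engineered HEK293 cells measured after one day of compound exposure at 37 deg C, with a 12 min room-temperature detection step.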
% is set by controls: 0 for no effect and ±100 for the full control effect; potency is the fitted concentration of half-maximal effect; tags give direction and shape of the fitted curve.

Potency, active:
O=S(=O)(NCC(c1ccco1)N1CCCCC1)c1cccc(C(F)(F)F)c1 (stereo not drawn) 11.2 µM
CCN(CC)c1ccc(NC(=O)CN2CCN(CC(=O)Nc3ccc(F)cc3)CC2)cc1 12.6 µM

Potency, inactive:
CCCS(=O)(=O)N1CC(=O)N(c2ccc(Cl)cc2C)C(C)(C(=O)NC2CCCC2)C1 (stereo not drawn)
COC(=O)c1ccccc1NC(=O)NC1CCN(Cc2ccccc2)CC1
COc1nc(N/N=C/c2ccc(C)cc2)nc(N2CCCCC2)n1
CC(=O)Nc1ccccc1-c1nnn(CC(=O)Nc2ccc3c(c2)OCCO3)n1
Cc1cc(=O)oc2cc(OCC(=O)NCc3ccncc3)ccc12
COc1ccc(S(=O)(=O)n2ccc(-c3cnc(-c4ccccc4)s3)n2)cc1
CC(=O)c1ccc(N2C(=O)N(CC(=O)c3ccc(F)cc3)c3ccccc3S2(=O)=O)cc1
C=CCN(CC(=O)NC1CCS(=O)(=O)C1)S(=O)(=O)c1ccccc1C(F)(F)F (stereo not drawn)
N#C/C(=C/c1cccnc1)c1ccccc1
CCN(CC)C(=O)Cn1c(=O)n(Cc2ccc(C(=O)NCCc3ccc(OC)c(OC)c3)cc2)c(=O)c2ccccc21
Cc1cc(=O)oc2cc(OCC(=O)OCC(=O)NC(C)C)ccc12
Cc1cc(C)n(-c2nc3ccccc3nc2Nc2cccc(C)c2C)n1
CCOc1ccc(CCNS(=O)(=O)c2cc(Br)cc3c2N(C(C)=O)CC3)cc1OCC

Potency, inconclusive:
O=S(=O)(Cc1ccccc1)NCCc1cccc(Cl)c1 10 µM [inhibitor, partial curve]
Cc1ccc(S(=O)(=O)CCC(O)c2ccc(Cl)cc2)cc1 (stereo not drawn) 11.2 µM [inhibitor, single point]
O=C(Nc1nncs1)C12CC3CC(CC(C3)C1)C2 1.12 µM [inhibitor, full curve, poor fit]
CC(C)(C)OC(=O)NCc1ccc(NC(=O)c2nc[nH]c2C(=O)N[C@@H](Cc2ccccc2)C(=O)OC(C)(C)C)cc1 10 µM [inhibitor, partial curve, poor fit]
CCCCN(CCCNC(=O)c1cc(Nc2ccc(OC)c(OC)c2)nc2ccccc12)Cc1ccccc1 28.2 µM [inhibitor, single point]
COc1ccc(S(=O)(=O)NCCc2csc(-c3ccc(F)cc3)n2)cc1F 10 µM [inhibitor, partial curve, poor fit]
CCN(CC)c1ccc(C(=C2C=CC(=[N+](CC)CC)C=C2)c2ccc(S(=O)(=O)O)cc2S(=O)(=O)[O-])cc1 6.31 µM [inhibitor, partial curve]
Cc1ccc(C)c(S(=O)(=O)N2CCCOC2CNC(=O)C(=O)NCCc2ccccc2)c1 (stereo not drawn) 12.6 µM [inhibitor, single point]
Cc1ccc(-n2ncc(C(=O)NCc3ccco3)c2C2CCN(C(=O)OC(C)(C)C)CC2)c(C)c1 28.2 µM [inhibitor, single point]
CCOC(=O)C1=C(c2ccccc2)NC(SCC)=C(C#N)C1c1cccnc1 (stereo not drawn) 3.98 µM [inhibitor, partial curve, poor fit]
Cc1ccc(CN(CC(O)COc2cccc3[nH]cc(C)c23)C(C)(C)C)cc1 (stereo not drawn) 7.08 µM [inhibitor, partial curve, poor fit]
CC(C)(C)OC(=O)N1CCCN(C(=O)Nc2ccc(OC(F)(F)F)cc2)CC1 3.98 µM [inhibitor, partial curve, poor fit]
CCSC1=NC(C)(C)C=C(/C=C/c2ccc(Cl)cc2Cl)N1 11.2 µM [inhibitor, single point]
Cc1ccc(-n2ncc3c(NC4CCCCCC4)ncnc32)cc1Cl 1.26 µM [inhibitor, partial curve, poor fit]
Cc1cc(NCc2ccccc2)n2ncc(-c3ccccc3)c2n1 10 µM [inhibitor, single point]
CCN1C(=O)/C(=C\C(=O)c2cccs2)c2cc(Br)ccc21 31.6 µM [inhibitor, single point]
CCc1ccc(CN(Cc2cn[nH]c2-c2ccc(OC)cc2)C(=O)Nc2cc(Cl)ccc2OC)cc1 17.8 µM [inhibitor, single point]
Cc1ccc(S(=O)(=O)NN2C(=O)/C(=C/c3ccc(F)cc3)SC2=S)cc1 12.6 µM [inhibitor, single point]
COC(=O)c1c(NC(=O)CCCOc2cccc(C)c2)sc2c1C(C(=O)OC)CC2 (stereo not drawn) 11.2 µM [inhibitor, single point]
O=C(NCc1ccccc1)C(c1ccc(F)cc1)N(C(=O)c1csnn1)C1CCCC1 (stereo not drawn) 15.8 µM [inhibitor, partial curve, poor fit]
Fc1cccc(COc2ccccc2CNc2ccccc2)c1 31.6 µM [inhibitor, single point]
CCc1cccc(C)c1NC(=S)NCc1ccc2c(c1)cc(C)n2C 11.2 µM [inhibitor, partial curve, poor fit]
CC1CCCN(C(=S)NCCc2ccccc2)C1 (stereo not drawn) 28.2 µM [inhibitor, single point]
CCC(Sc1nc2ccccc2c(=O)n1CCc1ccc(OC)c(OC)c1)C(=O)N(CC)CC (stereo not drawn) 28.2 µM [inhibitor, single point]
CN(CCC(=O)Nc1ccc(Cl)cc1)Cc1ccccc1 28.2 µM [inhibitor, single point]
Cc1cc(N2CCN(c3ccccc3)CC2)nc2ccccc12 14.1 µM [inhibitor, single point]
Cc1cc(C)cc(NS(=O)(=O)c2ccc3c(c2)c(=O)n(C)c(=O)n3C)c1 1.58 µM [inhibitor, full curve, poor fit]

Activity change, negative = inhibition, inconclusive:
COc1ccccc1Nc1c2ccccc2nc2ccccc12 -82.4% [inhibitor]
